Read counts are not given, so values of variants with three or more changes are uncertain.
B1: CPEB3 Ribozyme (parent)
chain: UAACAGGGGGCCACAGCAGAAGCGUUCACGUCGCAGCCCCUGUCAGAUUCUGGUGAAUCUGCGAAUUCUGCUGUAUAUCUC

Variants of: B1
Assay: self-cleavage, relative activity (ratio to wild type); higher = more cleavage; in vitro, sequencing
In short: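 Relative activity compares each variant's cleaved/total read fraction with that of the unmutated ribozyme. To get these fractions, barcoded CPEB3 ribozyme libraries from rounds of error-prone PCR were transcribed with T7 RNA polymerase for 5 hours at 37°C and then given 15 min of DNase I treatment before EDTA was added. The RNAs were reverse transcribed with template switching and sequenced on Illumina, and DNA sequencing linked barcodes to variants. A minimum of 5 reads applied, and three batches were averaged.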
For UAACAGGGGGCCACAGCAGAAGCGCUCACGUCGCGGCCCAUGUCAGACUCUGGUGAAUCUGCGGAUUCUGCUGCAUAUCUC, the self-cleavage was 0.11.
For UAACAGGGGGCCACAGCAGAAGCGCUCACGUCGCGGCCCCUGCCAGAUUCUGGUGAAUCUGCGAAUUCUGCCGUAUAUCUC, the self-cleavage was 0.26.
UAACAGGGGGCCACAGCAGAAGCGCUCACGUCGCGGCCCCUGUCAGAAUCUGGUGAAUCUGCGAAUUCUGCUGUAUAUCUC gave a self-cleavage of 0.35.
UAACAGGGGGCCACAGCAGAAGCGCUCACGUCGCGGCCCCUGUCAGAUCCUGGUGAAUCUGCGAAUUCUGCUGUAUAUCUC gave a self-cleavage of 0.42.
Work on UAACAGGGGGCCACAGCAGAAGCGCUCACGUCGCGGCCCCUGUCAGAUUCCGGUGGAUCUGCGAGUUCUGCUGGAUAUCUC yielded a self-cleavage of 0.13.
UAACAGGGGGCCACAGCAGAAGCGCUCACGUCGCGGCCCCUGUCAGAUUCUGGUGAAUCUGCGAAUUCUGCUGUAUAUCAC gave a self-cleavage of 0.31.
Variant UAACAGGGGGCCACAGCAGAAGCGCUCACGUCGCUGCCCCUGUCAGGUUCUGGAGAAUCUGCGAAUUCUGCUGUAUAUCUC has a self-cleavage of 0.43.
Variant UAACAGGGGGCCACAGCAGAAGCGCUCACGUCGCUGCCCCUGUCAGGUUCUGGCGAAUCUGCGAACUCUGCUGUAUAUCUC has a self-cleavage of 0.1.
For UAACAGGGGGCCACAGCAGAAGCGCUCACGUCGCUGCCCCUGUCAGAUUCUGGUGCAUCUGCGAAUUCUGCUGUAUAUCUC, the self-cleavage was 0.09.
For UAACAGGGGGCCACAGCAGAAGCGCUCACGUCGCUGCACCUGUCAGAUCCUGGUGAAUCUGCGAAUUCUGAUGUAUAUCUC, the self-cleavage was 0.13.
In the case of UAACAGGGGGCCACAGCAGAAGCGCUCACGUCGCUGCCCCUAUCAGAUUCUGUUGAAUCUGCGAAUUCUGCUGUAUAUCUC, the self-cleavage is reported as 0.19.
For UAACAGGGGGCCACAGCAGAAGCGCUCACGUCGCUGCCCCCGUCUGAUUCUGGUGAACCUGCGGAUUCUGCUGUAUAUCUC, the self-cleavage was 0.16.
In the case of UAACAGGGGGCCACAGCAGAAGCGCUCACGUCGCUGCCCCUGUCAGAUUCUGGUGAAUCCGCGAAUUCUGCUGUAUAUCUC, the self-cleavage is reported as 0.15.
Work on UAACAGGGGGCCACAGCAGAAGCGCUCACGUCGCAGCCCCUGUCCGAUUCCGGAGAAUCUGCGAAUUCUGCUGUAUAUCUC yielded a self-cleavage of 0.47.
UAACAGGGGGCCACAGCAGAAGCGCUCACGUCGCAGCCCCUGUCGGGUUCUGGUGAAUCUGCGGAUUCUGCUGUAUAUCUC showed a self-cleavage of 0.22.
In the case of UAACAGGGGGCCACAGCAGAAGCGCUCACGUCGCAGCCCCUGUCGGGUUCUGGUGAAUCUGCGAAUCCUGCUGUGUAUCUC, the self-cleavage is reported as 0.1.
UAACAGGGGGCCACAGCAGAAGCGCUCACGUCGCAGCCCCUGUCGGAUUCUGGUGUAUCUGCGAGUUCUGCUGUAUACCUC showed a self-cleavage of 0.08.
In the case of UAACAGGGGGCCACAGCAGAAGCGCUCACGUCGCAGCCCCUGUCGGACUCUGGUGAAUCUGCGAAUUCUGCUGUAUAUCUC, the self-cleavage is reported as 0.32.
Work on UAACAGGGGGCCACAGCAGAAGCGCUCACGUCGCAGCCCCUGUCGGAUACUGGUGAAUCUGCGAAUUCUGCCGUAUAUCUC yielded a self-cleavage of 0.39.
UAACAGGGGGCCACAGCAGAAGCGCUCACGUCGCAGCCCCUGUCGGAUUCUGGUGAAUCUGCGAAUCCUGCUGUAUAUCUC showed a self-cleavage of 0.14.
Variant UAACAGGGGGCCACAGCAGAAGCGCUCACGUCGCAGCCCCUGUCUGGUUCUGGUGAAUCUGCGAAUUCUGCUGUAUAUCUC has a self-cleavage of 0.04.
Work on UAACAGGGGGCCACAGCAGAAGCGCUCACGUCGCAGCCCCUGUCUGAUUCUGGCGGAUCUGCGGAUUCUGCUGUAUAUCUC yielded a self-cleavage of 0.3.
For UAACAGGGGGCCACAGCAGAAGCGCUCACGUCGCAGCCCCUGUCAGCUUCUGGCGAGUCUGCGAAUUCAGCUGUAUAUCUC, the self-cleavage was 0.13.
Work on UAACAGGGGGCCACAGCAGAAGCGCUCACGUCGCAGCCCCUGUCAGGUUCUGGUGAAUCUGCGAAUUCUGCUGUAUCUCUC yielded a self-cleavage of 0.06.
UAACAGGGGGCCACAGCAGAAGCGCUCACGUCGCAGCCCCUGUCAGGUUCUGGUGAACCUGCGAAUUCUGCUGUAUAUCUC showed a self-cleavage of 0.29.
In the case of UAACAGGGGGCCACAGCAGAAGCGCUCACGUCGCAGCCCCUGUCAGUUUCUGGUGUAUCUGCGAAUUCUGCUGUAUAUCUC, the self-cleavage is reported as 0.14.
In the case of UAACAGGGGGCCACAGCAGAAGCGCUCACGUCGCAGCCCCUGUCAGUUCCUGGUGAAUCUGCGAAUACUGCUGUAUAUCUC, the self-cleavage is reported as 0.11.
Work on UAACAGGGGGCCACAGCAGAAGCGCUCACGUCGCAGCCCCUGUCAGUUUCUGGCGAAUCUGCGAAUUCUGCUGUAUAUCUC yielded a self-cleavage of 0.13.
With UAACAGGGGGCCACAGCAGAAGCGCUCACGUCGCAGCCCCUGUCAGAUUCUGGUGGAUCUGUGGAUUCUGCUGUAUACCUC the self-cleavage was 0.07.
Variant UAACAGGGGGCCACAGCAGAAGCGCUCACGUCGCAGCCCCUGUCAGAUUCUGGUGGAUCUGCGAAUUCUGCUGUAUAUCCC has a self-cleavage of 0.28.
With UAACAGGGGGCCACAGCAGAAGCGCUCACGUCGCAGCCCCUGUCAGAUUCUGGUGUAUCUGCGAAUUCUGCUGAAUAUCUC the self-cleavage was 0.21.
In the case of UAACAGGGGGCCACAGCAGAAGCGCUCACGUCGCAGCCCCUGUCAGAUUCUGGUGAGUCUGCGUAUUCUGCUGUACAUCUC, the self-cleavage is reported as 0.42.
In the case of UAACAGGGGGCCACAGCAGAAGCGCUCACGUCGCAGCCCCUGUCAGAUUCUGGUGAGUCUGCGAAUUCUGCUGUAUGUCUC, the self-cleavage is reported as 0.28.
For UAACAGGGGGCCACAGCAGAAGCGCUCACGUCGCAGCCCCUGUCAGAUUCUGGUGAGCCUGCGAAUUCUGCUGUAUAUCUC, the self-cleavage was 0.43.
In the case of UAACAGGGGGCCACAGCAGAAGCGCUCACGUCGCAGCCCCUGUCAGAUUCUGGUGAAUCUGCGCACUCCGCUGUAUAUCUC, the self-cleavage is reported as 0.14.
UAACAGGGGGCCACAGCAGAAGCGCUCACGUCGCAGCCCCUGUCAGAUUCUGGUGAAUCUGCGGAGUCUGCUGUAUAACCC gave a self-cleavage of 0.47.
With UAACAGGGGGCCACAGCAGAAGCGCUCACGUCGCAGCCCCUGUCAGAUUCUGGUGAAUCUGCGGAUUCUGCUGUAUAUCAC the self-cleavage was 0.26.
With UAACAGGGGGCCACAGCAGAAGCGCUCACGUCGCAGCCCCUGUCAGAUUCUGGUGAAUCUGCGUAUUCUGCAGUAUAUCUC the self-cleavage was 0.14.
For UAACAGGGGGCCACAGCAGAAGCGCUCACGUCGCAGCCCCUGUCAGAUUCUGGUGAAUCUGCGAGUUCUGCUGUAUGUCUC, the self-cleavage was 0.22.
With UAACAGGGGGCCACAGCAGAAGCGCUCACGUCGCAGCCCCUGUCAGAUUCUGGUGAAUCUGCGAGUUCUGCCGUAUAUCCC the self-cleavage was 0.41.
UAACAGGGGGCCACAGCAGAAGCGCUCACGUCGCAGCCCCUGUCAGAUUCUGGUGAAUCUGCGAAUUCUGCUGUCUAUCCC showed a self-cleavage of 0.28.
Variant UAACAGGGGGCCACAGCAGAAGCGCUCACGUCGCAGCCCCUGUCAGAUUCUGGUGAAUCUGCGAAUUCUGCUGUUUAUCCC has a self-cleavage of 0.27.
In the case of UAACAGGGGGCCACAGCAGAAGCGCUAACGUCGCAGCCCCUGUCAGAUCCUGGUGUAUCUGCGAAUUCUGCUGUAUAUCUC, the self-cleavage is reported as 0.08.
In the case of UAACAGGGGGCCACAGCAGAAGCGCUUACGUCGCGGCCCCUGUCAGAUUCUGGUGAAUCUGCGAAUUCUGCUGUAUAUCUC, the self-cleavage is reported as 0.15.
UAACAGGGGGCCACAGCAGAAGCGCUUACGUCGCAGUCCCUGCCAGAUUCUGGUGAAUCUGCGAGUUCUGCUGUAUAUCUC gave a self-cleavage of 0.06.
In the case of UAACAGGGGGCCACAGCAGAAGCGCUCAUGACGCAGCCCCUGUCAGAUUCUGGUGAAUCUGCGAAUUCUGCUGUAUAUCUC, the self-cleavage is reported as 0.17.
UAACAGGGGGCCACAGCAGAAGCGCUCAUGACGCAGCCCCCGUCAGAUUCUGGUGAAUCUGCGAAUUCUGCUGCAUGUCUC showed a self-cleavage of 0.09.
UAACAGGGGGCCACAGCAGAAGCGCUCAUGUCGCAGCCCCUGUCAGAUCCUGGUGAAUCUGCGAAUCCUGCUGUAUAUCUC gave a self-cleavage of 0.41.
In the case of UAACAGGGGGCCACAGCAGAAGCGCUCACGUAGCAGCCCCUGUCGGAUUCUGGUGAAUCUGCGUAUUCUGCUGUAUACCUC, the self-cleavage is reported as 0.19.
In the case of UAACAGGGGGCCACAGCAGAAGCGCUCACGUAGCAGACCCUGUCAGAUUCUGGUGAAUCUGCGAGCUCUGCUGUAUAUUUC, the self-cleavage is reported as 0.05.
Work on UAACAGGGGGCCACAGCAGAAGCGCUCACGUUGCGGCCCCUGACAGAUUCGGGUGAAUCUGUGAAUUCUGCUGUAUAUCUC yielded a self-cleavage of 0.05.
For UAACAGGGGGCCACAGCAGAAGCGCUCACGUUGCUGCCCCUGUCAGAUUCUGGUGAAUCUGCGAAUUCUGCCGUAUAUCUC, the self-cleavage was 0.15.
In the case of UAACAGGGGGCCACAGCAGAAGCGCUCACGUUGCAGCCCCUGUCAGGUUCUGGUGAAUCUGCGAAUUCUGCUGUAUAUCUC, the self-cleavage is reported as 0.25.
Variant UAACAGGGGGCCACAGCAGAAGCGCUCACGUUGCAGCCCCUGUCAGAUUCUGGUGAAUCUGCGAAUUCUGCUGUAUGUCUC has a self-cleavage of 0.21.
In the case of UAACAGGGGGCCACAGCAGAAGCGCUCACGUUGCAGCCCCUGUCAGAUUCUGAUGAAUCUGCGAAUUCUGCUGUAUAUCUC, the self-cleavage is reported as 0.18.
With UAACAGGGGGCCACAGCAGAAGCGCUCACGUCGUAGCCCCUGUCAGAUUCUGGUGAAUCUGCGGAUUCUGCUGUAUAUCUC the self-cleavage was 0.3.
With UAACAGGGGGCCACAGCAGAAGCGCUCACGUCGCAGGCUCUGUCAGGUUCUGGUGAGUCUGCGAAUUCUGCUGUAUAUCUC the self-cleavage was 0.09.
UAACAGGGGGCCACAGCAGAAGCGCUCACGUCGCAGUCCCUGUCGGAUUCUGGUGAAACUGCGAAUCCUGCAGUAUAUCCC showed a self-cleavage of 0.04.
With UAACAGGGGGCCACAGCAGAAGCGCUCACGUCGCAGUCCCUGUCAGAUUCUGGUGAAUUCGCGAAUUCUGCUGUAUAUCUC the self-cleavage was 0.15.
With UAACAGGGGGCCACAGCAGAAGCGCUCACGUCGCAGUCCCUGUCAGAUUCUGGUGAAUCUGCUAGCUCUGCUGUAUAUCUC the self-cleavage was 0.05.
Work on UAACAGGGGGCCACAGCAGAAGCGCUCACGUCGCAGUCCCUGUCAGAUUCUGGAGAAUCUGCGAAUUCUGCUGUAUACCAC yielded a self-cleavage of 0.07.
UAACAGGGGGCCACAGCAGAAGCGCUCACGUCGCAGCACCUGUCAGAUUCUGGUGUAUCUGCGAAUUCUGCUGUAUACCUC showed a self-cleavage of 0.05.
In the case of UAACAGGGGGCCACAGCAGAAGCGCUCACGUCGCAGCACCUGUCAGAUUCUGGUGAGUCUGCGAAUUCCGCCGUAAAUCUC, the self-cleavage is reported as 0.15.
UAACAGGGGGCCACAGCAGAAGCGCUCACGUCGCAGCACCUGUCAGAUUCUGGUGAAUCUGCGAAUUCUGCUGUAUUUCUC gave a self-cleavage of 0.08.
UAACAGGGGGCCACAGCAGAAGCGCUCACGUCGCAGCACCUGUCAGAUUCUGGUGAAUCUGCGAAUUCUGUUGUAUAUCUC showed a self-cleavage of 0.08.
Variant UAACAGGGGGCCACAGCAGAAGCGCUCACGUCGCAGCACCUGUCAGAUUCUGGUGAAUCUGCGAACUCUGCUGUAUAUCUC has a self-cleavage of 0.15.
UAACAGGGGGCCACAGCAGAAGCGCUCACGUCGCAGCUCCUGUCAGAUUCUGGCGAAUCUGCGAAAUCUGCUGUAUAUCUC showed a self-cleavage of 0.13.
In the case of UAACAGGGGGCCACAGCAGAAGCGCUCACGUCGCAGCCACUGUCAAAUACUGGUGAAUCUGCGAAUUCUGCUGUAUAUCUC, the self-cleavage is reported as 0.08.

From the RNAGym collection of RNA variant scans (doi:10.1093/nar/gkz1192)
